The record followed here is the supplement of paper PMC12067230.

This is a noisy data set.
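Also: [psi-pin-] Saccharomyces cerevisiae expressing SupN fusions, induced by 100 µM Cu2SO4, selected 7 d at 30 °C without adenine and uracil, scored by deep sequencing of output versus input.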

The nature of the first data set: amyloid nucleation score relative to library mode (yeast Sup35 reporter selection) (log enrichment difference); higher = more amyloid nucleation; sequences are the first 22 residues of the Bri2 peptide extended by up to 12 random residues. Conditions: random library (experiment): 1;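 active = nucleation score significantly above 0 at FDR 0.05; inactive = not significantly above 0 or absent from output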.
As to EASNCFAIRHFENKFAVETLICVEGMVTRVVVTE, the amyloid nucleation score entry is “inactive”.

Take EASNCFAIRHFENKFAVETLICVEGRSVRYGGAG: the amyloid nucleation score entry is “inactive”.

Regarding EASNCFAIRHFENKFAVETLICVEIGYYQVVTCR, the amyloid nucleation score result is “inactive”.

EASNCFAIRHFENKFAVETLICVELRATVQPWVS: the amyloid nucleation score entry was “inactive”.

As for EASNCFAIRHFENKFAVETLICVELYTCGESLVS, the amyloid nucleation score entry is “inactive”.

Turning to EASNCFAIRHFENKFAVETLICVENWRGGEVGVW, the amyloid nucleation score result is “inactive”.

As for EASNCFAIRHFENKFAVETLICVEQWGFDLSQEP, the amyloid nucleation score entry was “inactive”.

In the case of EASNCFAIRHFENKFAVETLICVERVGLRIMLD, the amyloid nucleation score result was “inactive”.

For the sequence EASNCFAIRHFENKFAVETLICVES, the amyloid nucleation score result is “inactive”.

For the sequence EASNCFAIRHFENKFAVETLICVESMGSYVGDMA, the amyloid nucleation score was 2.25.

On to EASNCFAIRHFENKFAVETLICVETAEPGVLGQG, for which the amyloid nucleation score entry was “inactive”.

As to EASNCFAIRHFENKFAVETLICVETCCRSTRCGM, the amyloid nucleation score was -0.309.

As to EASNCFAIRHFENKFAVETLICVEVMASVLGWIK, the amyloid nucleation score entry was “inactive”.

Take EASNCFAIRHFENKFAVETLICVEVTFTSPGAGW: the amyloid nucleation score entry was “inactive”.

The sequence EASNCFAIRHFENKFAVETLICVEVVWKSRVRIK yielded an amyloid nucleation score of -0.622.

As to EASNCFAIRHFENKFAVETLICVEWLPSCGSHSR, the amyloid nucleation score worked out at 1.72.

Take EASNCFAIRHFENKFAVETLICVEWRTMLISFSW: the amyloid nucleation score result is “inactive”.

As for EASNCFAIRHFENKFAVETLICVEWVTHYHWRSV, the amyloid nucleation score result is “inactive”.

The sequence EASNCFAIRHFENKFAVETLICVEYSGVHECCWA displayed an amyloid nucleation score of -0.12.

For the sequence EASNCFAIRHFENKFAVETLICVF, the amyloid nucleation score is -0.785.

As to EASNCFAIRHFENKFAVETLICVFAHSSESASVS, the amyloid nucleation score entry was “inactive”.

On to EASNCFAIRHFENKFAVETLICVFAYMNTFVESE, for which the amyloid nucleation score result was “inactive”.

Take EASNCFAIRHFENKFAVETLICVFCDEYITGLRF: the amyloid nucleation score stood at 6.82.

Turning to EASNCFAIRHFENKFAVETLICVFCLHPRLVVAW, the amyloid nucleation score entry is “inactive”.

For the sequence EASNCFAIRHFENKFAVETLICVFCLNSLYMFRI, the amyloid nucleation score entry is “inactive”.

In the case of EASNCFAIRHFENKFAVETLICVFCMAKAVPGEL, the amyloid nucleation score stood at 5.95.

As to EASNCFAIRHFENKFAVETLICVFCYLAKNSR, the amyloid nucleation score entry is “inactive”.

With EASNCFAIRHFENKFAVETLICVFDAVSTKVLVR, the amyloid nucleation score was -0.273.

On to EASNCFAIRHFENKFAVETLICVFECLLRRYLVQ, for which the amyloid nucleation score entry was “inactive”.

Turning to EASNCFAIRHFENKFAVETLICVFGEYSSWNQLG, the amyloid nucleation score stood at 5.06.

As to EASNCFAIRHFENKFAVETLICVFGGTLGPGVWA, the amyloid nucleation score worked out at 8.03.

For the sequence EASNCFAIRHFENKFAVETLICVFGVEGFWYQSW, the amyloid nucleation score came out at 1.13.

Regarding EASNCFAIRHFENKFAVETLICVFHACICGRTVF, the amyloid nucleation score turned out to be 5.99.

Turning to EASNCFAIRHFENKFAVETLICVFHSKGCMSGGW, the amyloid nucleation score result is “inactive”.

The same data set, now with this note: random library (experiment): 2.
EASNCFAIRHFENKFAVETLICVEHTKSGVQISR registered an amyloid nucleation score of 4.4.

Sequence EASNCFAIRHFENKFAVETLICVEISFFHSFDCL registered an amyloid nucleation score of 4.76.

EASNCFAIRHFENKFAVETLICVELGLSFINCVL: the amyloid nucleation score was 3.61.

Turning to EASNCFAIRHFENKFAVETLICVELNRHKTGLPW, the amyloid nucleation score stood at 3.23.

Consider EASNCFAIRHFENKFAVETLICVERVCKTKQSQV, for which the amyloid nucleation score result was “inactive”.

As for EASNCFAIRHFENKFAVETLICVERWSYESDDFT, the amyloid nucleation score result was “inactive”.

In the case of EASNCFAIRHFENKFAVETLICVERWWKFLYIYH, the amyloid nucleation score result is “inactive”.

For EASNCFAIRHFENKFAVETLICVESRWKNRLMVH, the amyloid nucleation score result was “inactive”.

In turn, EASNCFAIRHFENKFAVETLICVESSKLSFIRPW had an amyloid nucleation score of -0.329.

As to EASNCFAIRHFENKFAVETLICVETVWNSPPSFW, the amyloid nucleation score amounted to 4.28.

In turn, EASNCFAIRHFENKFAVETLICVEVYRHILKSFV displayed an amyloid nucleation score of -0.174.

For the sequence EASNCFAIRHFENKFAVETLICVEYVVGACVNSA, the amyloid nucleation score result was “inactive”.

Take EASNCFAIRHFENKFAVETLICVFAFILGGTSAH: the amyloid nucleation score turned out to be 0.844.

Regarding EASNCFAIRHFENKFAVETLICVFAMFMVQVIEW, the amyloid nucleation score result was “inactive”.

In the case of EASNCFAIRHFENKFAVETLICVFAV, the amyloid nucleation score result is “inactive”.

For the sequence EASNCFAIRHFENKFAVETLICVFEVCLDVMSVE, the amyloid nucleation score result was “inactive”.

Turning to EASNCFAIRHFENKFAVETLICVFEYFSCDGL, the amyloid nucleation score was determined as 1.41.

The sequence EASNCFAIRHFENKFAVETLICVFFAFLGSSDEG displayed an amyloid nucleation score of 4.64.

Turning to EASNCFAIRHFENKFAVETLICVFFCHDF, the amyloid nucleation score came out at 7.14.

Take EASNCFAIRHFENKFAVETLICVFFNMRLWACHV: the amyloid nucleation score entry was “inactive”.

For the sequence EASNCFAIRHFENKFAVETLICVFGGSVHFSLS, the amyloid nucleation score amounted to 7.11.

In turn, EASNCFAIRHFENKFAVETLICVFGSY displayed an amyloid nucleation score of 8.14.

Turning to EASNCFAIRHFENKFAVETLICVFILHPFPWFCR, the amyloid nucleation score result is “inactive”.

Consider EASNCFAIRHFENKFAVETLICVFKSALFTVHGL, for which the amyloid nucleation score entry was “inactive”.

Still in this data set, the particulars now being: random library (experiment): 3.
EASNCFAIRHFENKFAVETLICVEGNAAWASRRG: the amyloid nucleation score came out at 2.96.

For EASNCFAIRHFENKFAVETLICVEITPVSHWLRK, the amyloid nucleation score result is “inactive”.

EASNCFAIRHFENKFAVETLICVELRRSRGHC: the amyloid nucleation score came to 0.279.

In the case of EASNCFAIRHFENKFAVETLICVEPIPQVARRTT, the amyloid nucleation score came to 0.937.

For the sequence EASNCFAIRHFENKFAVETLICVERWNCSGEWQR, the amyloid nucleation score was 0.749.

Regarding EASNCFAIRHFENKFAVETLICVEVCWDLGAWSE, the amyloid nucleation score entry was “inactive”.

With EASNCFAIRHFENKFAVETLICVEVELGLAESVP, the amyloid nucleation score result was “inactive”.

Take EASNCFAIRHFENKFAVETLICVEVLFDVRICGA: the amyloid nucleation score entry was “inactive”.

For the sequence EASNCFAIRHFENKFAVETLICVEWAWSSSTVVF, the amyloid nucleation score is 0.379.

With EASNCFAIRHFENKFAVETLICVEYVRTALDQLS, the amyloid nucleation score result was “inactive”.

Turning to EASNCFAIRHFENKFAVETLICVFCCVVTGSGAS, the amyloid nucleation score was found to be 4.73.

Take EASNCFAIRHFENKFAVETLICVFDK: the amyloid nucleation score result is “inactive”.

The sequence EASNCFAIRHFENKFAVETLICVFGPIWTMSTET registered an amyloid nucleation score of 8.53.

EASNCFAIRHFENKFAVETLICVFGPPSALRPQA yielded an amyloid nucleation score of 5.81.

Turning to EASNCFAIRHFENKFAVETLICVFGYVLVMGMSG, the amyloid nucleation score result was “inactive”.

With EASNCFAIRHFENKFAVETLICVFIDYTQGYWKE, the amyloid nucleation score result was “inactive”.
